Measured values taken from the supplement of paper PMC4967469.
pIC50: −log10 of the molar value. The IC50 comes from the fitted curve, where viability falls to half of the control; a fit beyond the top or the lowest dose is shown as a bound at that dose. For AUC the same curve is integrated over the 256-fold range of doses and scaled to a fraction; values near 1 show little effect. For some of these results: A top dose marked as inferred is not printed in the source and was worked back from the curve model.

Tests used:
Test in all cases: Viability of human cancer cell lines after 72 h of drug (GDSC screen)
AG-014699 = compound: CNCc1ccc(-c2[nH]c3cc(F)cc4c3c2CCNC4=O)cc1 [AG-014699]; conditions: top dose 5 µM; top dose inferred
Experimental: (§1)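 Human cancer cell lines in 384-well plates, medium with 10% serum, drug for 72 h over a 256-fold dose range (nine 2-fold or five 4-fold steps up to the top dose). Adherent lines were fixed and stained with the nucleic acid dye Syto60, suspension lines read with resazurin; signal relative to control wells, capped at 0 and 100%. One two-parameter sigmoid per drug and line, fitted in a mixed model over all curves with the slope shared within a line.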

Phenformin = compound: N=C(N)NC(=N)NCCc1ccccc1 [Phenformin]; conditions: top dose 4000 µM; top dose inferred
Experimental: as §1

WHI-P97 = compound: COc1cc2ncnc(Nc3cc(Br)c(O)c(Br)c3)c2cc1OC [WHI-P97]; conditions: top dose 10.24 µM; top dose inferred
Experimental: as §1

S-Trityl-L-cysteine = compound: N[C@@H](CSC(c1ccccc1)(c1ccccc1)c1ccccc1)C(=O)O [S-Trityl-L-cysteine]; conditions: top dose 5.12 µM; top dose inferred
Experimental: as §1

Gefitinib = compound: COc1cc2ncnc(Nc3ccc(F)c(Cl)c3)c2cc1OCCCN1CCOCC1 [Gefitinib]; conditions: top dose 0.5 µM
Experimental: as §1

Vinorelbine = compound: CCC1=C[C@@H]2CN(C1)Cc1c([nH]c3ccccc13)[C@@](C(=O)OC)(c1cc3c(cc1OC)N(C)[C@H]1[C@@](O)(C(=O)OC)[C@H](OC(C)=O)[C@]4(CC)C=CCN5CC[C@]31[C@@H]54)C2 [Vinorelbine]; conditions: top dose 0.064 µM; top dose inferred
Experimental: as §1

NU-7441 = compound: O=c1cc(N2CCOCC2)oc2c(-c3cccc4c3sc3ccccc34)cccc12 [NU-7441]; conditions: top dose 2 µM; top dose inferred
Experimental: as §1

EHT 1864 = compound: O=c1cc(CN2CCOCC2)occ1OCCCCCSc1ccnc2cc(C(F)(F)F)ccc12 [EHT 1864]; conditions: top dose 10 µM; top dose inferred
Experimental: as §1

XL-184 = compound: COc1cc2nccc(Oc3ccc(NC(=O)C4(C(=O)Nc5ccc(F)cc5)CC4)cc3)c2cc1OC [XL-184]; conditions: top dose 5.12 µM; top dose inferred
Experimental: as §1

QL-XI-92 = compound: C=CC(=O)Nc1cc(NC(=O)c2ccc(C)c(NC(=O)c3ccno3)c2)cc(C(F)(F)F)c1 [QL-XI-92]; conditions: top dose 10.24 µM; top dose inferred
Experimental: as §1

Cell Line | AUC (AG-014699) | pIC50 (AG-014699) | AUC (Phenformin) | pIC50 (Phenformin) | AUC (WHI-P97) | pIC50 (WHI-P97) | AUC (S-Trityl-L-cysteine) | pIC50 (S-Trityl-L-cysteine) | AUC (Gefitinib) | pIC50 (Gefitinib) | AUC (Vinorelbine) | pIC50 (Vinorelbine) | AUC (NU-7441) | pIC50 (NU-7441) | AUC (EHT 1864) | pIC50 (EHT 1864) | AUC (XL-184) | pIC50 (XL-184) | AUC (QL-XI-92) | pIC50 (QL-XI-92)
DU-4475 (breast, suspension) | 0.965 | < 5.30 | 0.307 | 4.09 | 0.967 | < 4.99 | 0.697 | 6.00 | 0.967 | < 6.30 | 0.873 | 7.37 | 0.982 | < 5.70 | 0.942 | < 5.00 | 0.976 | < 5.29 | 0.878 | 5.15
Daudi (Burkitt lymphoma, suspension) | 0.99 | < 5.30 | 0.496 | 3.61 | 0.982 | < 4.99 | 0.683 | 6.02 | 0.975 | < 6.30 | 0.865 | 7.35 | 0.984 | < 5.70 | 0.935 | < 5.00 | 0.881 | 5.38 | 0.787 | 5.42
EC-GI-10 (oesophagus, adherent) | 0.981 | < 5.30 | 0.987 | < 2.40 | 0.983 | < 4.99 | 0.915 | < 5.29 | 0.9 | < 6.30 | 0.907 | < 7.19 | 0.983 | < 5.70 | 0.918 | < 5.00 | 0.938 | < 5.29 | 0.989 | < 4.99
ES1 (Ewing sarcoma, adherent) | 0.766 | 5.74 | 0.46 | 3.71 | 0.937 | < 4.99 | 0.696 | 5.95 | 0.986 | < 6.30 | 0.529 | 8.32 | 0.986 | < 5.70 | 0.845 | 5.15 | 0.869 | 5.34 | 0.856 | 5.09
ES5 (Ewing sarcoma, adherent) | 0.862 | < 5.30 | 0.464 | 3.71 | 0.93 | < 4.99 | 0.979 | < 5.29 | 0.982 | < 6.30 | 0.771 | 7.55 | 0.855 | 5.70 | 0.951 | < 5.00 | 0.803 | 5.52 | 0.872 | < 4.99
ES6 (Ewing sarcoma, adherent) | 0.982 | < 5.30 | 0.666 | 3.09 | 0.95 | < 4.99 | 0.901 | < 5.29 | 0.982 | < 6.30 | 0.769 | 7.52 | 0.968 | < 5.70 | 0.963 | < 5.00 | 0.885 | < 5.29 | 0.964 | < 4.99
ES7 (Ewing sarcoma, adherent) | 0.858 | 5.37 | 0.4 | 3.88 | 0.923 | < 4.99 | 0.968 | < 5.29 | 0.983 | < 6.30 | 0.554 | 8.25 | 0.873 | < 5.70 | 0.874 | < 5.00 | 0.638 | 6.11 | 0.866 | 5.02
EVSA-T (breast, adherent) | 0.991 | < 5.30 | 0.722 | 3.02 | 0.982 | < 4.99 | 0.782 | 5.74 | 0.991 | < 6.30 | 0.924 | < 7.19 | 0.93 | < 5.70 | 0.922 | < 5.00 | 0.963 | < 5.29 | 0.986 | < 4.99
EW-1 (Ewing sarcoma, semi-adherent) | 0.968 | < 5.30 | 0.722 | 3.00 | 0.924 | < 4.99 | 0.697 | 5.97 | 0.989 | < 6.30 | 0.468 | 8.48 | 0.974 | < 5.70 | 0.948 | < 5.00 | 0.875 | 5.36 | 0.944 | < 4.99
EW-3 (Ewing sarcoma, adherent) | 0.931 | < 5.30 | 0.666 | 3.11 | 0.922 | < 4.99 | 0.897 | < 5.29 | 0.978 | < 6.30 | 0.915 | < 7.19 | 0.982 | < 5.70 | 0.949 | < 5.00 | 0.928 | < 5.29 | 0.922 | < 4.99
EW-13 (Ewing sarcoma, suspension) | 0.979 | < 5.30 | 0.769 | 2.77 | 0.916 | < 4.99 | 0.976 | < 5.29 | 0.975 | < 6.30 | 0.604 | 8.10 | 0.981 | < 5.70 | 0.986 | < 5.00 | 0.882 | < 5.29 | 0.745 | 5.45
EW-16 (Ewing sarcoma, adherent) | 0.948 | < 5.30 | 0.798 | 2.70 | 0.875 | < 4.99 | 0.667 | 6.02 | 0.937 | < 6.30 | 0.515 | 8.36 | 0.962 | < 5.70 | 0.96 | < 5.00 | 0.918 | < 5.29 | 0.965 | < 4.99
EW-18 (Ewing sarcoma, suspension) | 0.93 | < 5.30 | 0.658 | 3.15 | 0.925 | < 4.99 | 0.985 | < 5.29 | 0.953 | < 6.30 | 0.573 | 8.19 | 0.945 | < 5.70 | 0.974 | < 5.00 | 0.855 | 5.34 | 0.849 | 5.07
EoL-1-cell (haematopoietic neoplasm, suspension) | 0.936 | < 5.30 | 0.023 | > 4.81 | 0.794 | 5.39 | 0.516 | 6.45 | 0.953 | < 6.30 | 0.489 | 8.43 | 0.91 | < 5.70 | 0.812 | 5.34 | 0.019 | > 7.70 | 0.422 | 6.40
Farage (B-cell lymphoma, suspension) | 0.991 | < 5.30 | 0.892 | 2.49 | 0.993 | < 4.99 | 0.699 | 5.99 | 0.979 | < 6.30 | 0.459 | 8.50 | 0.906 | 5.73 | 0.971 | < 5.00 | 0.852 | 5.53 | 0.866 | 5.19
GB-1 (glioma, adherent) | 0.935 | < 5.30 | 0.388 | 3.94 | 0.939 | < 4.99 | 0.811 | 5.48 | 0.978 | < 6.30 | 0.905 | < 7.19 | 0.917 | < 5.70 | 0.977 | < 5.00 | 0.812 | 5.47 | 0.938 | < 4.99
GCIY (stomach, adherent) | 0.972 | < 5.30 | 0.92 | < 2.40 | 0.896 | < 4.99 | 0.772 | 5.65 | 0.902 | < 6.30 | 0.811 | 7.41 | 0.918 | < 5.70 | 0.895 | < 5.00 | 0.921 | < 5.29 | 0.858 | 4.99
GDM-1 (acute myeloid leukaemia, suspension) | 0.958 | < 5.30 | 0.418 | 3.82 | 0.909 | < 4.99 | 0.567 | 6.32 | 0.986 | < 6.30 | 0.78 | 7.60 | 0.986 | < 5.70 | 0.919 | < 5.00 | 0.315 | 7.00 | 0.62 | 5.87
GI-1 (glioma, adherent) | 0.961 | < 5.30 | 0.548 | 3.47 | 0.972 | < 4.99 | 0.701 | 5.94 | 0.979 | < 6.30 | 0.537 | 8.30 | 0.975 | < 5.70 | 0.977 | < 5.00 | 0.817 | 5.57 | 0.937 | < 4.99
GOTO (neuroblastoma, adherent) | 0.938 | < 5.30 | 0.954 | < 2.40 | 0.982 | < 4.99 | 0.899 | < 5.29 | 0.96 | < 6.30 | 0.859 | < 7.19 | 0.902 | < 5.70 | 0.935 | < 5.00 | 0.94 | < 5.29 | 0.983 | < 4.99
H9 (lymphoid neoplasm, suspension) | 0.992 | < 5.30 | 0.986 | < 2.40 | 0.947 | < 4.99 | 0.58 | 6.29 | 0.992 | < 6.30 | 0.696 | 7.90 | 0.956 | < 5.70 | 0.975 | < 5.00 | 0.954 | < 5.29 | 0.892 | 5.08
HA7-RCC (kidney, adherent) | 0.984 | < 5.30 | 0.985 | < 2.40 | 0.946 | < 4.99 | 0.84 | 5.39 | 0.976 | < 6.30 | 0.757 | 7.62 | 0.964 | < 5.70 | 0.958 | < 5.00 | 0.898 | < 5.29 | 0.953 | < 4.99
HC-1 (hairy cell leukaemia, suspension) | 0.975 | < 5.30 | 0.525 | 3.54 | 0.923 | < 4.99 | 0.628 | 6.15 | 0.987 | < 6.30 | 0.528 | 8.32 | 0.968 | < 5.70 | 0.976 | < 5.00 | 0.922 | < 5.29 | 0.809 | 5.29
HCC1187 (breast, suspension) | 0.942 | < 5.30 | 0.794 | 2.76 | 0.971 | < 4.99 | 0.664 | 6.05 | 0.988 | < 6.30 | 0.577 | 8.19 | 0.983 | < 5.70 | 0.955 | < 5.00 | 0.96 | < 5.29 | 0.955 | < 4.99
HCC2157 (breast, suspension) | 0.983 | < 5.30 | 0.425 | 3.81 | 0.986 | < 4.99 | 0.908 | < 5.29 | 0.95 | < 6.30 | 0.742 | 7.69 | 0.873 | < 5.70 | 0.931 | < 5.00 | 0.984 | < 5.29 | 0.912 | < 4.99
HD-MY-Z (Hodgkin lymphoma, adherent) | 0.962 | < 5.30 | 0.544 | 3.48 | 0.93 | < 4.99 | 0.778 | 5.68 | 0.958 | < 6.30 | 0.798 | 7.51 | 0.976 | < 5.70 | 0.972 | < 5.00 | 0.879 | < 5.29 | 0.797 | 5.31
